The values below come from paper PMC4822036, “Rab35 GTPase couples cell division with initiation of epithelial apico-basal polarity and lumen opening” (Nature Communications, 2016).

Chains of the proteins cited; added tags and fusions are not shown. Lines headed by an entry give the natural chain unless they say otherwise; changes in a name come on top. A line that says so, or that is headed by a name, gives the form on record, which may keep a tag or linker. Residues count along the entry.
UniProt P62491: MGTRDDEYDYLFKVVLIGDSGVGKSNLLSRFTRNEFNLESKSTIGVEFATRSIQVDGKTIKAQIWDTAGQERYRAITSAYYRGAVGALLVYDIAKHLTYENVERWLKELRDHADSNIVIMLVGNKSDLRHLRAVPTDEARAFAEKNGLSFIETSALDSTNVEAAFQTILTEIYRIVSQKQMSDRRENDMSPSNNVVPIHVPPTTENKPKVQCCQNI
LexA-human Rab11^Q70L Y173 (aa 1–173) (P62491, form named): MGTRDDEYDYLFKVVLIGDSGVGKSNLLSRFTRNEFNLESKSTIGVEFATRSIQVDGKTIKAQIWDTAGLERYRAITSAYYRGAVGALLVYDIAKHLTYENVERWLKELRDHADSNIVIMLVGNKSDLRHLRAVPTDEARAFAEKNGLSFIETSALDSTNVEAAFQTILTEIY
UniProt P51159: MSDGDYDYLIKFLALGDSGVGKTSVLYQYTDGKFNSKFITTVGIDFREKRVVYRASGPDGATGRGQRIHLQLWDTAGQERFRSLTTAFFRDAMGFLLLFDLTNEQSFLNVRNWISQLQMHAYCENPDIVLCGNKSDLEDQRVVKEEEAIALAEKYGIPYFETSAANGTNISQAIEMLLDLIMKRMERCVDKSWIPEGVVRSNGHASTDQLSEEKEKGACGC
LexA-human Rab27A^Q78L (aa 1–201) (P51159, form named): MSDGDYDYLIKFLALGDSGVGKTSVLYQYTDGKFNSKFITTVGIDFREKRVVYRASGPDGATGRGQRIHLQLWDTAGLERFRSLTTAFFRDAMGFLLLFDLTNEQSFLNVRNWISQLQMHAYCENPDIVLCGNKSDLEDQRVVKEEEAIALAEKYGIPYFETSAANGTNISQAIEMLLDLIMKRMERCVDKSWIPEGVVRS
UniProt Q15286: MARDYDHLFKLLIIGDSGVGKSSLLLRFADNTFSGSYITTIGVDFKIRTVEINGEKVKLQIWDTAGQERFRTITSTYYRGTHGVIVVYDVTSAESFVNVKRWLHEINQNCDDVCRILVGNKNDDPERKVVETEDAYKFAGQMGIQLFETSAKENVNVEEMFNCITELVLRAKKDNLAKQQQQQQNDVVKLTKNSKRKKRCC
LexA-human wild-type Rab35 K173 (aa 1–173): residues 1-173 of Q15286
LexA-human Rab35^Q67L K173 (aa 1–173) (Q15286, form named): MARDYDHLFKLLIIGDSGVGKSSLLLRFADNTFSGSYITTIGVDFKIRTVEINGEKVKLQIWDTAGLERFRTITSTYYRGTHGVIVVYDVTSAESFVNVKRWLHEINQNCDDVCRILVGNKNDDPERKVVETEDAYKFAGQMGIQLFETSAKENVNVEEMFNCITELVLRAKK
LexA-human Rab35^S22N K173 (aa 1–173) (Q15286, form named): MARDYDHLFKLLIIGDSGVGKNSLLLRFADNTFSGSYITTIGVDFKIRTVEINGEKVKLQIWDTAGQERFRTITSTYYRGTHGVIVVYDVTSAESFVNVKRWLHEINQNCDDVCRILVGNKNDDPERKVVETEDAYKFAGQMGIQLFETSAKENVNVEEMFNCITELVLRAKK
UniProt P61006: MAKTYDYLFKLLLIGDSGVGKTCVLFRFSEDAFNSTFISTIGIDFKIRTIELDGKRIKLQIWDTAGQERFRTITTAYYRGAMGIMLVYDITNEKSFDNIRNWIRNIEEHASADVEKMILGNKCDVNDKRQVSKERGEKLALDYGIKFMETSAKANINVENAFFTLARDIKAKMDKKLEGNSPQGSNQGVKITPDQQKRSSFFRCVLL
LexA-human Rab8A^Q67L (aa 1–183) (P61006, form named): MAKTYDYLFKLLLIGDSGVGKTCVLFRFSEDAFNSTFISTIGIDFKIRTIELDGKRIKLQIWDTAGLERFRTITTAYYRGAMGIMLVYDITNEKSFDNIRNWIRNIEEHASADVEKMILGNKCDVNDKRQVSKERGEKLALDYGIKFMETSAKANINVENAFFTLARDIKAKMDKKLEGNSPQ

Numbering of substitutions follows the chain as printed. No constants are given. Whether binding was seen depends on the method and setting. For part of these data: Binding seen in cells or lysates may run through a third protein. Some results given as binding are weak or reduced against the parent protein; the word gives no strength. For part of these data: Where a sequence is shown, tags or fusion partners need not be part of it.

For test [1], the target named is T1, GST–PODXL V496A Y500A (aa 476–551) (rabbit) (UniProt Q28645).
T1 sequence: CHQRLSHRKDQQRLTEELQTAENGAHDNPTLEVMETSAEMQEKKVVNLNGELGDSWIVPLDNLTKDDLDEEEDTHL
Kind of test: pull-down; GST–PODXL tail or GST on glutathione Sepharose 4B beads incubated with 6xHis-Rab proteins exchanged with 1 mM GDP or 200 μM GTPγS; 25 mM Tris pH 7.5, 50 mM NaCl, 10 mM MgCl2, 0.1% Triton X-100, 0.2% BSA; western blot with anti-6xHis; both purified. A general note: In western blotting, separated proteins are transferred to a membrane and probed.

The target in test [2] is 3xFlag-tagged Rab11A^Q70L (not stated (human or canine cDNA cloned)) (UniProt P62491). Nature of the test: co-IP; MDCK cells transfected 24 h with 3xFlag-tagged Rab proteins; lysis in 25 mM Tris pH 7.5, 150 mM NaCl, 10 mM MgCl2, 0.1% Triton X-100; anti-Flag M2 affinity gel 2 h; endogenous PODXL detected by western blot.
Test [3] deals with 3xFlag-tagged Rab27A^Q78L (human) (UniProt P51159). Described as above.
For test [4], the target named is 3xFlag-tagged Rab35^Q67L (human) (UniProt Q15286). Described as above.
In test [5] the target is 3xFlag-tagged Rab35^S22N (human) (UniProt Q15286). The test is described as above.
The target in test [6] is 3xFlag-tagged Rab35^WT (human) (UniProt Q15286). Described as above.
The target of test [7] is 3xFlag-tagged Rab6A^Q72L (human) (UniProt P20340). The test is described as above.
Test [8] has as its target 3xFlag-tagged Rab8A^Q67L (human) (UniProt P61006). Described as above.
Test [9] concerns the target LexA-human Rab11^Q70L Y173 (aa 1–173) (human) (UniProt P62491). Kind of test: two-hybrid; S. cerevisiae L40 reporter strain co-transformed with pGAD-rabbit PODXL (aa 476–551) or pGAD alone and pLex-Rab constructs; growth on medium without histidine indicates an interaction.
Test [10] has as its target LexA-human Rab27A^Q78L (aa 1–201) (human) (UniProt P51159). The description is as above.
The target of test [11] is LexA-human Rab35^Q67L K173 (aa 1–173) (human) (UniProt Q15286). Described as above.
Test [12] concerns the target LexA-human Rab35^S22N K173 (aa 1–173) (human) (UniProt Q15286). The description is as above.
The target of test [13] is T2, LexA-human Rab6A^Q72L (aa 1–173) (human) (UniProt P20340).
T2 sequence: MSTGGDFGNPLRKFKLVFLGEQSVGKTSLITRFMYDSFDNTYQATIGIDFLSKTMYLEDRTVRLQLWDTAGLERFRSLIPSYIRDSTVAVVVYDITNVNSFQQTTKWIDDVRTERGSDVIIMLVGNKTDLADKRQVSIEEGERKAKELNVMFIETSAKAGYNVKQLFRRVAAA
The test is described as above.

Test [14] concerns the target LexA-human Rab8A^Q67L (aa 1–183) (human) (UniProt P61006). The description is as above.
Test [15] has as its target LexA-human wild-type Rab35 K173 (aa 1–173) (human) (UniProt Q15286). The description is as above.

Turning to “6xHis–Rab35^WT full-length (from UniProt Q15286 1-201)”, the binding entry in test [1] was “no binding”.

B1: endogenous PODXL (MDCK cells) (protein, UniProt Q52S86 23-571)
chain: HDGTIIAATSPTSGQPSTELPGGKGLITTAKTIQNTDLAITGEKVMSATVSKGPLPGSSNSVSMTLAPTQKNTVIAPDQDEKVSTNPTIATSDSKGIPDLNKSILPSATNSMKPDTPVTQTAGPGAQGNPGTTVSHMTSENTEQTTSQPPPQVKPSSITPALTSIITPTSPRQPSANSTTLKPPESSSESPDKSHTASSSLGTKVVPSSSLYGTSPTRTSSVTFWGGPQSSSGTPPVPAPTPRPAATSSSTPGISSVPGTTSLPSETESLESPSSESPSQPPKLRPTGPPSSGSSGPAASLPDEGPRSSSTQRAATAPRAPSVPSPTSAQGDDRIKCESPGRLTDKMLLLNLTRSGLCAGNNSDDKLITLLCRAAKATFNPAQDQCHIRLVPIQDTQAVAIKEITVQTNLLPRDVYELLKDKWDELKEVGVSNMKLGDQGPPEETEDRFSMPLIITIVCMASFLLLVAALYGCCHQRLSQRKDQQRLTEELQTVENGYHDNPTLEVMETSSEMQEKKVVNLNGELGDSWIVPLDNLAKDDLDEEEDTHL
In the case of B1, the binding result is on record as “no binding” in test [2]; “no binding” in [3]; “binds” in test [4]; “no binding” in test [5]; “binds” in test [6]; “no binding” in [7]. Moreover, the binding entry in test [8] is recorded as “no binding”.

B2: GST–PODXL WT (aa 476–551) (domain or fragment, rabbit, UniProt Q28645 476-551, looked up)
chain: T1 sequence with A21V, A25Y
notes: The species is not repeated for the GST construct; source: E. coli BL21 pLysS, purified (glutathione Sepharose 4B)
In the case of B2, the binding entry was “no binding” in [9]; “no binding” in test [10]; “binds” in [11]; “no binding” in test [12]; “no binding” in test [13]; “no binding” in [14]. Moreover, in test [15], the binding entry is listed as “binds”.
